# Results reported in PubChem BioAssay AID1347165 (National Center for Advancing Translational Sciences (NCATS), 2019).
# The campaign covered roughly 220,000 compounds. About 5,700 (2.6%) were called active. The inconclusive results got no clear call from the source; some entries with a clear call stand among them for comparison. Calls come from the whole dose curve; as a rule, active = well fitted inhibition curve with a large enough effect; inconclusive = small, poorly fitted or top-dose-only effect; inactive = no such curve, though single readings can be large or run the other way. Potencies of inconclusive entries are doubtful fits and often do not repeat.
# Biological target: Lysine-specific demethylase 5B (Homo sapiens) (UniProt Q9UGL1)
# Sequence of UniProt Q9UGL1 (Q9UGL1 whole entry, looked up): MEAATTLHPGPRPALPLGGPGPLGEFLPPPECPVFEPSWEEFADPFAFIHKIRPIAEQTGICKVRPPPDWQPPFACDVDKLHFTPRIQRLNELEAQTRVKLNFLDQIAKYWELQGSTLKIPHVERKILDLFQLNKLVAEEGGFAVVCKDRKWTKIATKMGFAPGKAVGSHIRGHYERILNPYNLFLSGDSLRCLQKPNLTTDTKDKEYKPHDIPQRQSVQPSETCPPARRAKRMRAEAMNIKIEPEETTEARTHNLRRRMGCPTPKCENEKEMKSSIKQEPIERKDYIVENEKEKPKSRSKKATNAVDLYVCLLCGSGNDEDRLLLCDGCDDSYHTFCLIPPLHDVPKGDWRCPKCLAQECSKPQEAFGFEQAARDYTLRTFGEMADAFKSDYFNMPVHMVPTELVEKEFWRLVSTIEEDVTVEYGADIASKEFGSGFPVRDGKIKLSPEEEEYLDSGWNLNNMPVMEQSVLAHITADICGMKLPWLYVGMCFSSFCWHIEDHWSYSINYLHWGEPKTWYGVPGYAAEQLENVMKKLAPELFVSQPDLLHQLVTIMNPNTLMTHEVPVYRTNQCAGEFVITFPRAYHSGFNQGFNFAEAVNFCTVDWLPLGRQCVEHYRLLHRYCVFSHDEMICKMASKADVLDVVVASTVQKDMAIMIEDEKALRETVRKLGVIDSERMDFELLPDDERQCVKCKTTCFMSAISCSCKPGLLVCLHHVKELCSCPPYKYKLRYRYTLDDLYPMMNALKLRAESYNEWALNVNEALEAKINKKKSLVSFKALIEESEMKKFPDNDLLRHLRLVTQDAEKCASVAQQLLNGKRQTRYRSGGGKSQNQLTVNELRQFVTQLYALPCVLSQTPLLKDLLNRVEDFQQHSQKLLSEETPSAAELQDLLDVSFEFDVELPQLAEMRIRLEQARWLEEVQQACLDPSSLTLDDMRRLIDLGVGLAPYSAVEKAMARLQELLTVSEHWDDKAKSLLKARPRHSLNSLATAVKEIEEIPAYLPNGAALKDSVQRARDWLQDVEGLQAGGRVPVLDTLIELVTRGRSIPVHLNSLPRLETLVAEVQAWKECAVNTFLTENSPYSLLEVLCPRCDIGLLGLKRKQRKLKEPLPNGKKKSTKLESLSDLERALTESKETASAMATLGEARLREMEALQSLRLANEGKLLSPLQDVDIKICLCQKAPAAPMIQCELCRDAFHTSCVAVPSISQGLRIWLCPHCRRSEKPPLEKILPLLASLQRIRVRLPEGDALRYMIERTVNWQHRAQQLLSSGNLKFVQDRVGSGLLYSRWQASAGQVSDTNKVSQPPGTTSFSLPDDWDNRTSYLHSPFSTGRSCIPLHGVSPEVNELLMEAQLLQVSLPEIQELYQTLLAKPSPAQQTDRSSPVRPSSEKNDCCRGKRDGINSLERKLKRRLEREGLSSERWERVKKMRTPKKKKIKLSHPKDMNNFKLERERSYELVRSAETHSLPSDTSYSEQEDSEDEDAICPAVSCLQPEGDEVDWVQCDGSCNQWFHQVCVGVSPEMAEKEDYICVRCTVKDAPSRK
# Test: Primary screen for KDM5B Histone Demethylases FDH-coupled qHTS; note: nearly all actives have a fitted effect of over 70% in size; for activity change, negative = inhibition: 0% is about no effect
# Conditions: FDH-coupled NADH fluorescence (FDH is formaldehyde dehydrogenase); activity change, negative = inhibition: at 57.7 µM (top of the series) unless noted
# Outline: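 qHTS format, multiple compound concentrations. Buffer 50 mM HEPES pH 7.5/0.01% Tween-20; 200 nM KDM5BΔAP final; 10 min compound preincubation; substrate-mix levels 12.5 µM peptide, 25 µM α-KG, 0.25 mM NAD⁺; 30 min RT; ΔRFU.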
# Potency is the fitted concentration of half-maximal effect; tags give direction and shape of the fitted curve.
Structure (SMILES),Potency,"activity change, negative = inhibition"
CCc1cccc(Nc2ncnc3onc(-c4ccc(F)cc4)c23)c1,"inconclusive: 39.8 µM [inhibitor, partial curve, poor fit]",
Cc1[nH]c2ccccc2c1C(=O)/C(C#N)=C\c1c(Cl)cccc1Cl,"inconclusive: 39.8 µM [inhibitor, single point]",
CCC(=O)Nc1ccc(Cl)c(NC(=O)c2cccc3c(Br)cccc23)c1,"inconclusive: 39.8 µM [inhibitor, single point]",
FC(F)(F)c1ccc(CN2CCCC3(CC(c4ccccc4)=NO3)C2)cc1 (stereo unspecified),"inconclusive: 28.2 µM [inhibitor, partial curve, poor fit]",
COc1ccc(NC(=O)c2sc(-c3ccccc3)nc2C)c(OC)c1,"inconclusive: 25.1 µM [inhibitor, single point]",
COc1ccc(C(=O)NCCn2ccn3nc(-c4cccc(OC)c4)cc3c2=O)cc1,active: 22.4 µM,
CCc1ccc(-n2c(=O)c3cccnc3n2CC(=O)NCc2ccc(C)cc2)cc1,"inconclusive: 2.82 µM [inhibitor, partial curve, poor fit]",
CCOc1ccc2c(n1)CCN(C(=O)Cc1cccc(C)c1)C2,"inconclusive: 22.4 µM [inhibitor, single point]",
COc1ccc2c(C)c(CC(=O)Nc3cccc(Cl)c3)c(=O)oc2c1C,"inconclusive: 25.1 µM [inhibitor, partial curve, poor fit]",
COc1cc(C(=O)Nc2nnc(C3CC3)s2)cc(Cl)c1OCCC(C)C,inactive,
COc1ccc(CCNC(=O)CSc2n[nH]c(-c3ccccc3Cl)n2)cc1OC,"inconclusive: 1.26 µM [inhibitor, full curve, poor fit]",
O=C(CC1=CCCCC1)N1CCC(C2CCNC2)CC1 (stereo unspecified),"inconclusive: 31.6 µM [inhibitor, partial curve, poor fit]",
Cc1cccc(N(C)C(=O)Cn2cccc2-c2nc(-c3ccccc3)no2)c1,"inconclusive: 39.8 µM [inhibitor, single point]",
O=C(NCc1ccccc1)c1cnc(N2CCCCC2)c2ccccc12,"inconclusive: 35.5 µM [inhibitor, partial curve, poor fit]",
Cc1ccccc1-c1cnc2[nH]cc(CC(=O)Nc3cccnc3)c2c1,"inconclusive: 35.5 µM [inhibitor, single point]",
COc1ccccc1OCC(=O)Nc1cc(-c2ccc(Cl)cc2)no1,inactive,
CC1(C)CC(Nc2nc3ccccc3nc2NS(=O)(=O)c2ccc3c(c2)OCCO3)CC(C)(C)N1,"inconclusive: 31.6 µM [inhibitor, partial curve, poor fit]",
COC(=O)c1cc(C(C)C)sc1NC(=O)Cc1c(Cl)cccc1Cl,inactive,
Cc1cc2c(N3CCC(NCc4noc(C5CCC5)n4)CC3)ncnc2s1,inactive,
COc1cccc(NC(=O)CN(C)C(=O)CNC(=O)c2ccc3c(c2)OCO3)c1,inactive,
COCCNC(=O)c1ccc(-c2ncc3cnc(-c4cccc(F)c4)cn23)cc1,active: 35.5 µM,
Cc1nn(C(=O)c2ccc(Br)cc2)c(C)c1Sc1ccccc1,inactive,
COc1ccc(C(=O)N[C@@H]2CCC[C@@H]2C(=O)Nc2cc(F)ccc2C)cn1,"inconclusive: 39.8 µM [inhibitor, single point]",
O=C1Nc2ccccc2C12CCN(Cc1cccc3ccccc13)C2 (stereo unspecified),"inconclusive: 28.2 µM [inhibitor, full curve, poor fit]",

Structure (SMILES),Potency,"activity change, negative = inhibition"
C=CCO[C@@H]1CCN2C(=O)c3cc(-c4cccc(C(F)(F)F)c4)ccc3NC(=O)[C@H]12,"inconclusive: 35.5 µM [inhibitor, partial curve]",
CCCC(O)(c1ccc(Br)cc1)C(CN1CCOCC1)c1ccc(Cl)cc1 (stereo unspecified),"inconclusive: 39.8 µM [inhibitor, single point]",
CCN(c1cccc(C)c1)c1ncnc2c1cnn2-c1cccc(Cl)c1,"inconclusive: 28.2 µM [inhibitor, partial curve, poor fit]",
COc1ccc2c(C(F)(F)F)cc(SCC(=O)N3CCCC3)nc2c1,"inconclusive: 39.8 µM [inhibitor, single point]",
COc1ccc2c(C)c(CCC(=O)O)c(=O)oc2c1,"inconclusive: 25.1 µM [inhibitor, partial curve, poor fit]",
COc1cccc(C(=O)Nc2sc(C(C)C)cc2C(N)=O)c1OC,"inconclusive: 39.8 µM [inhibitor, single point]",
COc1ccc(-c2cc3nc4c(c(=O)n3[nH]2)CCN(C(=O)c2ccccc2C)C4)cc1,active: 20 µM,
CN1Cc2nc(Nc3ccc(C(F)(F)F)cc3)ccc2OCC1=O,"inconclusive: 25.1 µM [inhibitor, partial curve, poor fit]",
CCOC(=O)c1cc2c(=O)n3ccccc3nc2n(Cc2ccco2)c1=NC(=O)c1ccc(OCC)cc1,"inconclusive: 15.8 µM [inhibitor, partial curve, poor fit]",
Cn1c(=O)n(CCCc2ccccc2)c(=O)c2c1nc1n2CCN1c1ccc(F)cc1,"inconclusive: 14.1 µM [inhibitor, partial curve, poor fit]",
CN(C)CCOC(=O)NCCCCNC(=O)OCCN(C)C,inactive,
COCCOc1cc(NC(=O)c2nn(C)c(=O)c3ccccc23)ccc1OC,inactive,
CCCCc1cc(=O)oc2cc(OCC(=O)N(CC)CC)ccc12,"inconclusive: 28.2 µM [inhibitor, partial curve, poor fit]",
O=C(Nc1ccc(F)cc1)c1ccc2c(c1)OCCN(c1ccccc1)C2,"inconclusive: 31.6 µM [inhibitor, single point]",
CC(=O)c1cccc(NC(=O)c2ccc3c(=O)n(-c4ccccc4F)cnc3c2)c1,inactive,
O=C(NC1CCS(=O)(=O)C1)c1cc2sccc2n1Cc1ccc(Cl)cc1 (stereo unspecified),inactive,
COc1ccc2oc(=O)c(-c3nc(-c4cccs4)no3)cc2c1,"inconclusive: 8.91 µM [inhibitor, partial curve, poor fit]",
O=C1c2ccccc2S(=O)(=O)N1Cc1nc(-c2ccc(F)cc2)cs1,inactive,
CCOc1ccc(-c2cc3c(=O)n(CCNC(=O)Cc4cccc(F)c4)ccn3n2)cc1,"inconclusive: 14.1 µM [inhibitor, partial curve, poor fit]",
CCOC(=O)c1sc2nc(C)nc(NCc3ccccc3)c2c1C,"inconclusive: 20 µM [inhibitor, partial curve, poor fit]",
O=C1NC(=O)C(c2ccccn2)(C2CCN(C(=O)Cn3cnnn3)CC2)N1 (stereo unspecified),inactive,
O=Cc1ccc(-c2ccc(F)cc2)cc1,active: 89.1 µM,
COC(=O)CC(N)c1cccc(C)c1C (stereo unspecified),inactive,
COc1ccc(-c2nn(-c3cccc(F)c3)c3c2cnc2cc(OC)c(OC)cc23)cc1,"inconclusive: 2.51 µM [inhibitor, partial curve, poor fit]",

Structure (SMILES),Potency,"activity change, negative = inhibition"
Cc1ccc(Cl)cc1NC(=O)Cn1cccc1-c1nc(-c2ccc(F)cc2)no1,inactive,
CCCc1noc(-c2ccn3c(CNC(=O)c4ccc(C)c(F)c4)nnc3c2)n1,active: 28.2 µM,
Cc1ccc(O)c(C(=O)OCC(=O)Nc2cccc(N3CCCC3=O)c2)c1,"inconclusive: 39.8 µM [inhibitor, single point]",
COCc1noc([C@@H]2CN(C(=O)c3cc(C)oc3C)C[C@H]2COC)n1,inactive,
O=c1oc2ccccc2c(NC2CCCCC2)c1NS(=O)(=O)c1ccccc1,inactive,
COCCN1CC(CO)C2(CCN(C3CCC3)CC2)C1 (stereo unspecified),"inconclusive: 11.2 µM [inhibitor, partial curve]",
O=C(NC1CCCC1)c1sc2ccccc2c1Cl,inactive,
CN(C)C1CCN(c2ccc(-c3nc(CCCc4ccccc4)no3)cn2)CC1,"inconclusive: 22.4 µM [inhibitor, single point]",
Cc1cc(C)c2c(C)c(C(=O)Nc3ccc4c(c3)N(C)C(=O)CO4)oc2c1,inactive,
COC(=O)C(C)Sc1nc(C)c2cc(C)ccc2n1 (stereo unspecified),inactive,
CC(=O)N1CCC(NC(=O)Cc2nc(-c3ccccc3)oc2C)CC1,inactive,
COc1cc(C2CC(=O)Nc3nc(-c4ccccc4)[nH]c(=O)c32)ccc1OCc1cccc(Cl)c1 (stereo unspecified),inactive,
O=C(NC(c1ccccc1)C1CC1)c1cc(Cl)nc(Cl)c1 (stereo unspecified),inactive,
Cc1c(O[C@@H]2O[C@H](CO)[C@@H](O)[C@H](O)[C@H]2O)ccc2c1oc(=O)c1ccccc12,"inconclusive: 28.2 µM [inhibitor, partial curve, poor fit]",
O=C(Nc1ccccc1)C1=C(c2ccccc2)SCCO1,inactive,
COc1cccc(CN2Cc3nc(-c4c(C)noc4C)ccc3OCC2=O)c1,inactive,
Cc1ccc(NC(=O)Cn2ccn3nc(-c4ccccc4)c(CO)c3c2=O)cc1C,"inconclusive: 14.1 µM [inhibitor, partial curve]",
Cc1ccc(-n2nnnc2SCc2cc(=O)oc3c(C)c(C)ccc23)cc1,inactive,
CCN(C(=O)Cc1noc2ccccc12)c1cc(Cl)ccc1OC,inactive,
O=C(Nc1ccccc1)OCC1CCCO1 (stereo unspecified),,inconclusive: -33.8% [inhibitor]
COc1ccccc1-c1nc(C#N)c(NCc2ccccc2)o1,"inconclusive: 28.2 µM [inhibitor, partial curve, poor fit]",
COc1cccc(Nc2cc(C(=O)NCc3cccnc3)c3c(c2)ncn3C)c1,"inconclusive: 35.5 µM [inhibitor, single point]",
CCc1ccc2c(c1)c(=O)c(S(=O)(=O)c1ccccc1)cn2CC(=O)Nc1ccc(OC)cc1,"inconclusive: 31.6 µM [inhibitor, single point]",
